Test results taken from patent US5508437A, “Analogs of tyrosine sulfate or tyrosine phosphate containing peptides” (Hoffmann-La Roche Inc., priority 1993, dated 1996).
For part of these data: Not every detail of the peptide structures is certain; ends, links or a residue may be inferred. For part of these data: At least one compound was matched to its structure with a doubt left. Starred links: 1 amine or outer side, 2 acyl side, 3 side chain; linkers in the order of their positions; H or OH if unused. Non-standard residues stand in square brackets, D forms with d. Residues, ends and D or L forms follow the SMILES beside them. Phe(4-CH2CH2COOH) = N[C@@H](Cc1ccc(CCC(=O)O)cc1)C(=O)O; X15 = O=C([C@@H](Cc1ccc(-c2nn[nH]n2)cc1)N[*:1])[*:2]; X4 = O=C([C@@H](Cc1ccc(Cc2nn[nH]n2)cc1)N[*:1])[*:2]; Phe(4-COOH) = N[C@@H](Cc1ccc(C(=O)O)cc1)C(=O)O; X8 = O=C(C(Cc1ccc(Cc2nn[nH]n2)cc1)N[*:1])[*:2]; dPhe(4-COOH) = N[C@H](Cc1ccc(C(=O)O)cc1)C(=O)O; X14 = O=C(O)c1cccc(CC(N[*:1])C(=O)[*:2])c1; NMeF = CN[C@@H](Cc1ccccc1)C(=O)O; Nle = CCCC[C@H](N)C(=O)O

Legend:
[1] = tested on: Male Sprague-Dawley (CD) rats; test: Two-Meal Feeding Assay; format: in vivo; conditions: rat
Protocol: Male Sprague-Dawley (CD) rats weighing 180-200 grams (Charres River Breeding Laboratories) were acclimated to a 12 h light/dark cycle (6 a.m. to 6 p.m.) in a room kept at 22° C. They were subsequently fasted for two days, weighed, placed in individual cages, and a four-day period of meal training was begun. During this time the rats were given ground laboratory chow (Purina Lab Chow) in jars for one hour from 9:00 a.m. until 10:00 a.m., the jars were removed from 10:00 a.m. to 12:00 p.m., and placed back in the cages from 12:00 until 1:00 p.m. Under this `1-2-1` meal feeding regime, most rats learn to eat approximately as much per day during the two hours they have access to food as rats which have food ad libitum over the entire 24-hour day. On the fourth day, the rats were weighed again, and any which lost more than five grams body weight were excluded from the test. The animals were then distributed into experimental (n=5 to 6) and control groups (n=6-12), but not matched for body weight.
Peptides of the invention were suspended either in saline, if soluble, or in 0.5% DMSO/saline, if insoluble, at concentrations of 0 to 320 μg/mL/kg body weight and were administered intraperitoneally 15 min before the first meal on day 5 of meal feeding. The rats were then given their meals as they had been during the previous four days, and the food cups were weighed both before and after each meal to determine food consumption. Food intake was expressed as a mean and standard error of the mean in percent of control values for the various groups. The treated groups were compared to the control groups by t-test analysis.

[2] = molecular target: T1, Bovine Striatum (3H-CCK-8-(SO3 H) receptor binding) (Bos taurus, UniProt P79266); test: In vitro receptor binding assay, 3H-CCK-8-(SO3H), bovine striatum homogenate; conditions: 3H-CCK-8-(SO3H) 0.15 nM, 30 min at 25° C., read-out: Bovine Striatum IC50 (concentration to inhibit 50% of specific 3H-CCK-8-(SO3H) binding)
T1 construct: tissue homogenate (striatum approximately 0.26 mg protein in 2 mL final volume); from tissue; host or cells: bovine striatum membrane homogenate
T1 sequence (P79266 1-454): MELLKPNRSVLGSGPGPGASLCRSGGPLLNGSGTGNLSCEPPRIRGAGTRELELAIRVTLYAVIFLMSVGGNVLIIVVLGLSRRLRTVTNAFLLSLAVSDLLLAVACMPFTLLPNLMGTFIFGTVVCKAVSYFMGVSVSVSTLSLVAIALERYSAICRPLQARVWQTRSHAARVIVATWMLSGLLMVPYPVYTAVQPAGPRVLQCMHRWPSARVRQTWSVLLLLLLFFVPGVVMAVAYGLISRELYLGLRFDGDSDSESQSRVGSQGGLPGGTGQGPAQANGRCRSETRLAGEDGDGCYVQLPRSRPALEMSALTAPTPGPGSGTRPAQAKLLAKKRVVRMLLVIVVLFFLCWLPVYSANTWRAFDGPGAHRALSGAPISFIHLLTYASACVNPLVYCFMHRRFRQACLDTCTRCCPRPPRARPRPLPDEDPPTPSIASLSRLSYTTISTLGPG
Protocol: (§1) Frozen bovine striatum (approx. 5 g) or fresh rat pancreas (approx. 5 g) cleaned of fat and extraneous tissue were homogenized in HEPES buffer #1 (10 mM HEPES+130 mM NaCl+5 mM MgCl2, pH 7.4) using 35 parts buffer per 1 part tissue on a wet weight/volume basis (approx. 175 mL). The tissue was homogenized 2×for approx. 15 sec. at 0° C. using a Polytron homogenizer at a setting of 6. The tissue was isolated by centrifugation at 48,000× g for 10 min at 0° C. The resulting tissue pellet was resuspended in HEPES buffer #2 (10 mM HEPES+130 mM NaCl+5 mM MgCl2 +1 mg/L phenylmethanasulfonyl fluoride (PMSF)+200 mg/L Bacitracin): 1 part striatal tissue (original wet weight) per 80 parts buffer and 1 part pancreas tissue (original wet weight) per 500 to 1000 parts buffer.
(§2) Incubation was initiated by combining various concentrations of native CCK-8 or peptides of the invention with ^3 H-CCK-8-(SO3 H) (final conc.=0.15 nM) and tissue homogenate (striatum approximately 0.26 mg protein in 2 mL final volume; pancreas approximately 0.100 mg protein in 1 mL final volume). […] The vials were shaken overnight and then counted using a liquid scintillation spectrometer. Non-specific binding was determined in the presence of 1 micromolar native CCK-8 and subtracted from all samples to determine specific binding. […]

[3] = molecular target: T2, rat pancreas (3H-CCK-8-(SO3 H) receptor binding) (Rattus norvegicus, UniProt P30551); test: In vitro receptor binding assay, 3H-CCK-8-(SO3H), rat pancreas homogenate; conditions: 3H-CCK-8-(SO3H) 0.15 nM, 30 min at 25° C., read-out: Rate Pancreas IC50 (concentration to inhibit 50% of specific 3H-CCK-8-(SO3H) binding)
T2 construct: pancreas approximately 0.100 mg protein in 1 mL final volume; from tissue; host or cells: rat pancreas membrane homogenate
T2 sequence (P30551 1-444): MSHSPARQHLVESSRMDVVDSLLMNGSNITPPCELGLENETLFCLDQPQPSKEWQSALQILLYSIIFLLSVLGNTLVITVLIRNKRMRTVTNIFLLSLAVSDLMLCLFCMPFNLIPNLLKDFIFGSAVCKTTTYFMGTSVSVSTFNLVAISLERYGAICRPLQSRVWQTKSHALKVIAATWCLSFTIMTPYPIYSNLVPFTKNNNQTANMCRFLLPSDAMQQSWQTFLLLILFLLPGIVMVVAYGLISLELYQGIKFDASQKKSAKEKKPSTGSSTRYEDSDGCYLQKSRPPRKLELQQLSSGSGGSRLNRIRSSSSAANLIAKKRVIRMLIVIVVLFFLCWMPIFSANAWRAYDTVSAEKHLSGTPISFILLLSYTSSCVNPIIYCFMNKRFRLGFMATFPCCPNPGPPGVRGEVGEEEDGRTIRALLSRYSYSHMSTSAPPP
Protocol: as §1, §2

[4] = dose 3 Microgram/kg intraperitoneally 15 min before first meal
[5] = dose 16 Microgram/kg intraperitoneally 15 min before first meal
[6] = dose 320 Microgram/kg intraperitoneally 15 min before first meal
[7] = dose 32 Microgram/kg intraperitoneally 15 min before first meal

| SMILES | Food Intake 1st Meal [1, 6] | Food Intake 2nd Meal [1, 6] | Food Intake 1st Meal [1, 7] | Food Intake 2nd Meal [1, 7] | further results |
| --- | --- | --- | --- | --- | --- |
| CSCC[C@H](NC(=O)[C@H](Cc1c[nH]c2ccccc12)NC(=O)CNC(=O)[C@H](CCSC)NC(=O)[C@@H](Cc1ccc(-c2nn[nH]n2)cc1)NC(C)=O)C(=O)N[C@@H](CC(=O)O)C(=O)N[C@@H](Cc1ccccc1)C(N)=O [Example 54, Ac-(D)Phe(4-tetrazole)-Met-Gly-Trp-Met-Asp-Phe-NH2] (Ac-[X15]MGWMDF-NH2) | – | – | – | – | Food Intake 1st Meal [1, 4]: 86 ± 16 % of Control; Food Intake 2nd Meal [1, 4]: 140 ± 25 % of Control; Food Intake 1st Meal [1, 5]: 89 ± 6 % of Control; Food Intake 2nd Meal [1, 5]: 145 % of Control |
| CSCC[C@H](NC(=O)[C@H](Cc1ccc(CCC(=O)O)cc1)NC(C)=O)C(=O)NCC(=O)N[C@@H](Cc1c[nH]c2ccccc12)C(=O)N[C@@H](CCSC)C(=O)N[C@@H](CC(=O)O)C(=O)N[C@@H](Cc1ccccc1)C(N)=O [Example 51, AC-Phe(4-CH2 CH2 COOH)-Met-Gly-Trp-Met-Asp-Phe-NH2] (Ac-[Phe(4-CH2CH2COOH)]MGWMDF-NH2) | 103 ± 5 % of Control | 114 % of Control | – | – | – |
| CSCC[C@H](NC(=O)[C@H](Cc1c[nH]c2ccccc12)NC(=O)CNC(=O)[C@H](CCSC)NC(=O)[C@@H](Cc1ccc(C(=O)O)cc1)NC(C)=O)C(=O)N[C@@H](CC(=O)O)C(=O)N[C@@H](Cc1ccccc1)C(N)=O [Example 44, Ac-(D)Phe(4-COOH)-Met-Gly-Trp-Met-Asp-Phe-NH2] (Ac-[dPhe(4-COOH)]MGWMDF-NH2) | 85 ± 4 % of Control | 146 % of Control | 89 ± 6 % of Control | 123 % of Control | – |
| CSCC[C@H](NC(=O)[C@H](Cc1ccc(C(=O)O)cc1)NC(C)=O)C(=O)NCC(=O)N[C@@H](Cc1c[nH]c2ccccc12)C(=O)N[C@@H](CCSC)C(=O)N[C@@H](CC(=O)O)C(=O)N[C@@H](Cc1ccccc1)C(N)=O [Example 45, Ac-Phe(4-COOH)-Met-Gly-Trp-Met-Asp-Phe-NH2] (Ac-[Phe(4-COOH)]MGWMDF-NH2) | 12 ± 6 % of Control | 165 ± 8 % of Control | 79 ± 12 % of Control | 140 % of Control | – |
| CSCC[C@H](NC(=O)C(Cc1cccc(C(=O)O)c1)NC(C)=O)C(=O)NCC(=O)N[C@@H](Cc1c[nH]c2ccccc12)C(=O)N[C@@H](CCSC)C(=O)N[C@@H](CC(=O)O)C(=O)N[C@@H](Cc1ccccc1)C(N)=O (stereo partly drawn) [Example 42, Ac-(D,L)Phe(3-COOH)-Met-Gly-Trp-Met-Asp-Phe-NH2] (Ac-[X14]MGWMDF-NH2) | 98 ± 14 % of Control | 110 % of Control | 125 ± 12 % of Control | 98 ± 9 % of Control | – |
| CCCC[C@H](NC(=O)[C@H](Cc1c[nH]c2ccccc12)NC(=O)CNC(=O)[C@H](CCCC)NC(=O)[C@@H](Cc1ccc(Cc2nn[nH]n2)cc1)NC(C)=O)C(=O)N[C@@H](CC(=O)O)C(=O)N(C)[C@@H](Cc1ccccc1)C(N)=O [Example 64, Ac-(D)-Phe(4-CH2 -tetrazole)-Nle-Gly-Trp-Nle-Asp-N-methyl-Phe-NH2] (Ac-[X4][Nle]GW[Nle]D[NMeF]-NH2) | – | – | – | – | IC50 [2]: 160 nM; IC50 [3]: 800 nM |
| CSCC[C@H](NC(=O)C(Cc1ccc(Cc2nn[nH]n2)cc1)NC(C)=O)C(=O)NCC(=O)N[C@@H](Cc1c[nH]c2ccccc12)C(=O)N[C@@H](CCSC)C(=O)N[C@@H](CC(=O)O)C(=O)N[C@@H](Cc1ccccc1)C(N)=O (stereo partly drawn) [Example 60, Ac-(D,L)Phe(4-CH2 tetrazole)-Met-Gly-Trp-Met-Asp-Phe-NH2] (Ac-[X8]MGWMDF-NH2) | 12 ± 4 % of Control | 165 ± 19 % of Control | 63 ± 9 % of Control | 140 ± 15 % of Control | – |
